SMILES strings stand for the structures. Hit rate of the full screen: of about 310,000 compounds, about 2,200 (0.71%) showed an effect of 50% or more. Effects have a minus sign here. The list shows a part of the results.

The assay deals with human ether-à-go-go-related gene (hERG) potassium channel (human, UniProt Q12809). Briefly: primary screen, population patch clamp on CHO cells stably expressing hERG.
human ether-à-go-go-related gene (hERG) potassium channel, sequence (Q12809 whole entry, looked up): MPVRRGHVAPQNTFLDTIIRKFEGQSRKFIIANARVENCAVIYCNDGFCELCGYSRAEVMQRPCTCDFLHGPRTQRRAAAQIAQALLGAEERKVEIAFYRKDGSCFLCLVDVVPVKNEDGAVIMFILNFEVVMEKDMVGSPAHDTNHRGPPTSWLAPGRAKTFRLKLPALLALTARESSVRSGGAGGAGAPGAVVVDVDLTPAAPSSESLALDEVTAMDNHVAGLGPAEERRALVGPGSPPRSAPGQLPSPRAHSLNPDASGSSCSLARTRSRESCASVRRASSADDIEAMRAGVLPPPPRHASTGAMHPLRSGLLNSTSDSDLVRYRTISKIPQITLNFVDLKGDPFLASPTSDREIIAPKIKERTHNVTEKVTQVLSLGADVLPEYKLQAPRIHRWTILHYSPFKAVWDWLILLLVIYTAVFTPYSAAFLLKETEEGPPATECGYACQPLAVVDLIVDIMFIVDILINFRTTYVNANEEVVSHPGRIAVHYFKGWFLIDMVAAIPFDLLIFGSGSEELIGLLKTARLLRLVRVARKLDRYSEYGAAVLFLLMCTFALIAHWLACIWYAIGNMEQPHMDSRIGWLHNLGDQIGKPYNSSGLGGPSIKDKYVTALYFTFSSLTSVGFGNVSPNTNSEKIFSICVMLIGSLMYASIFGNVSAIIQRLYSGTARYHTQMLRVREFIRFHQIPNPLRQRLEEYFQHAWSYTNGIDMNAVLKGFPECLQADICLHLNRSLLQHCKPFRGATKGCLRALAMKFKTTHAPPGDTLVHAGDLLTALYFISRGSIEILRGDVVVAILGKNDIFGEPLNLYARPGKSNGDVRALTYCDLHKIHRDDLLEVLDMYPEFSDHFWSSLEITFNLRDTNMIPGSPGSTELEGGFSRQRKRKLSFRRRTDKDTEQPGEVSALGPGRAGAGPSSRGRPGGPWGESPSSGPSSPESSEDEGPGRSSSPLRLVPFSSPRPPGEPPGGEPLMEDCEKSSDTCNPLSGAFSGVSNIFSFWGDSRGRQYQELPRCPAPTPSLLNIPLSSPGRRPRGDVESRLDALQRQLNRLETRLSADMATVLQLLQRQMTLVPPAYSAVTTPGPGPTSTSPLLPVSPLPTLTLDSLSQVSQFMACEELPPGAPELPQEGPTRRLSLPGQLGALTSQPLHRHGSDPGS
As for `Cc1ccc(-n2ccnc2SCC(=O)O)cc1C`, the “hERG current change (%, negative = inhibition) at 1uM” value is reported as -2.3%.

Turning to `COC(=O)C1=C(c2cccc(OCc3ccccc3)c2)C[C@@H]2CC[C@H]1N2C(=O)NC1CCN(Cc2ccccc2)CC1`, the “hERG current change (%, negative = inhibition) at 1uM” value is on record as 14.7%. In the case of `CC(=O)N1CCN(c2ccc([N+](=O)[O-])c(-n3nc(C)cc3C)c2)CC1` it was -9.97%. In the case of `Cc1nn(C(C)C(=O)NCC2CCCO2)c(=O)c2c1sc1ccccc12` (stereo not shown) it was 0.0864%. The figure for `COc1cc(S(=O)(=O)N2CCN(Cc3ccccc3)CC2)ccc1Br` is 4.58%; for `C/C(=N\NC(=O)Cc1ccc(Cl)c(Cl)c1)c1cccnc1` it is -8.31%; for `Cc1ccc(OCC(=O)Nc2ccc(N3CCN(S(C)(=O)=O)CC3)cc2)cc1` it is -11.8%. `COc1ccc2cc3cc(C(=O)NC4CC4)sc3nc2c1`: the “hERG current change (%, negative = inhibition) at 1uM” value amounted to 11.8%. The figure for `Clc1ccc2c(c1)-c1[nH]ncc1CS2` is -5.2%; for `COC(=O)c1c(NC(=O)Cc2ccc(OC)c(S(=O)(=O)N3CCOCC3)c2)sc(C)c1C` it is 10.9%; for `Cc1noc(C)c1C(=O)OCC(=O)Nc1cc(Cl)ccc1Oc1ccccc1` it is -3.84%.

With `Cc1cccc(NC(=O)CCn2c(=O)oc3ccccc32)c1`, the “hERG current change (%, negative = inhibition) at 1uM” value is recorded as 14.2%. In the case of `CC1(C)CC(=O)C2=C(C1)OC(N)=C([N+](=O)[O-])C2c1ccc(C#N)s1` (stereo not shown) it was 3.2%; in that of `COc1cccc(C2C(C(N)=O)=C(C)Nc3nc(CCCO)nn32)c1` (stereo not shown), 7.53%. Regarding `Cc1cc(NC(=O)Nc2ccc(OCc3ccccc3)cc2)n(C)n1`, the “hERG current change (%, negative = inhibition) at 1uM” value came out at 25.2%.

On to `C=C(C)Cn1c(SCCN2CCOCC2)nc2c1c(=O)[nH]c(=O)n2C`, for which the “hERG current change (%, negative = inhibition) at 1uM” value was determined as 2.02%.

For `COc1ccc(S(=O)(=O)NCC2CCCO2)cc1Cl` (stereo not shown), the “hERG current change (%, negative = inhibition) at 1uM” value turned out to be 6.29%. The figure for `Cn1c(=O)c2c(nc(SCc3ccc(C(=O)O)cc3)n2C)n(C)c1=O` is 13.1%; for `Cc1ccc(C)c(NC(=O)NNC(=O)c2ccc3ccccc3c2O)c1` it is 10.4%; for `COc1ccc(NC(=O)Cc2csc(NC(=O)Nc3ccccc3OC)n2)c(OC)c1` it is 1.43%. For the compound `Cc1nc2cc(NC(=O)NC(C)(C)C)ccc2n1C`, the “hERG current change (%, negative = inhibition) at 1uM” value is 8.53%. The figure for `COc1ccc(/C=C/C(=O)c2c(C)cc(C)[nH]c2=O)c2ccccc12` is 11.3%; for `COCCN(C(=O)COC(=O)CSc1ccccc1)c1c(N)n(Cc2ccccc2)c(=O)[nH]c1=O` it is 11.8%; for `C#CCOCCOCCOCCNc1nc(N2CCN(C(=O)Cn3cc(CCC[NH+]=C(N)N)nn3)CC2)nc(N2CCN(C(=O)[C@H](C(C)C)n3cc(CCO)nn3)CC2)n1.[Cl-]` it is 9.28%.

As to `O=C(NC1(C(F)(F)F)C(=O)Nc2c1c(=O)[nH]c(=O)n2-c1ccccc1)c1ccncc1` (stereo not shown), the “hERG current change (%, negative = inhibition) at 1uM” value worked out at 4.12%. As for `Cc1cc(=O)[nH]c(-c2ccccc2O)n1`, the “hERG current change (%, negative = inhibition) at 1uM” value was -4.57%. In the case of `COc1ccc2cc3cc(C(=O)N4CCCCC4C)oc3nc2c1` (stereo not shown) it was 11.1%.

As to `CC(C)[NH+]1CCC2(CC1)C(C#N)=C(N)NC([S-])=C2C#N`, the “hERG current change (%, negative = inhibition) at 1uM” value was -14.8%.

As for `CCCC(=O)Nc1nnc(SCC(=O)NCc2cccs2)s1`, the “hERG current change (%, negative = inhibition) at 1uM” value came to 11.3%. The figure for `C=CCC1Cc2c(Br)cccc2C(CC=C)N1` (stereo not shown) is 5.53%; for `CCN(CC(=O)N(CC(C)C)c1c(N)n(CC(C)C)c(=O)[nH]c1=O)Cc1nc2ccccc2c(=O)[nH]1` it is 12%; for `COc1cc2c(cc1OC)C(C)=NCC2` it is 11%.

As for `Cc1ccc(N2CCN(C(=S)c3ccc(-c4cccc([N+](=O)[O-])c4)o3)CC2)cc1`, the “hERG current change (%, negative = inhibition) at 1uM” value amounted to 12.4%.

As for `COc1ccccc1NC(=O)c1cc(OC)c(OC)cc1[N+](=O)[O-]`, the “hERG current change (%, negative = inhibition) at 1uM” value is given as 13.5%. In the case of `COc1ccc(CNc2cccc(C)n2)c(O)c1` it was 7.06%; in that of `N#Cc1ccccc1OCC(=O)Nc1ccc2c(c1)OCCO2`, 5.64%; in that of `COc1cc(C(=O)NCc2ccccc2)cc(Br)c1OC`, 11.3%.

On to `CC(=O)c1ccc(NS(=O)(=O)c2ccc3c(c2)CCC(=O)N3)cc1`, for which the “hERG current change (%, negative = inhibition) at 1uM” value worked out at 17.6%. The figure for `CC(=O)Nc1ccc(-c2cc3ccccc3o2)cc1` is 4.1%.

Consider `O=C(Nc1nc(-c2ccccc2)cs1)C1CCCO1` (stereo not shown), for which the “hERG current change (%, negative = inhibition) at 1uM” value was -0.939%. In the case of `O=C(O)C1CCCCC1C(=O)NCc1ccncc1` (stereo not shown) it was 6.68%; in that of `COc1cc(/C=C(\C#N)C(=O)Nc2cccc3ncccc23)ccc1O`, 9%; in that of `COc1ccc(NC(=O)CN(c2ccccc2F)S(=O)(=O)c2ccc(C)cc2)c(OC)c1`, 8.92%.

`COc1ccc(CCNC(=O)C(C)n2nc(C)n3c(cc4occc43)c2=O)cc1OC` (stereo not shown): the “hERG current change (%, negative = inhibition) at 1uM” value is listed as 12.2%. The figure for `CCOc1ccc2oc(C(=O)NCC3CCCO3)c(C)c2c1` (stereo not shown) is -3.58%; for `Cc1cc(NC(=O)C2CCN(C(=O)c3ccco3)CC2)ccc1Br` it is -6.61%; for `CN1CCN(CCC(=O)N2c3ccccc3Sc3ccc(C(F)(F)F)cc32)CC1.Cl` it is 3.28%. The figure for `Cc1nc2ccccc2c(=O)n1-c1ccc(F)cc1` is 1.72%; for `O=C(NC1CCCCC1)N1CCN(c2ccc(Cl)cc2)CC1` it is -4.85%. The figure for `N#C/C(C(N)=O)=C1/SC(Cc2ccc(F)cc2)C(=O)N1c1ccccc1` (stereo not shown) is 12.3%; for `O=C(Cc1ccccc1)NCC(=O)OCC(=O)c1ccccc1Cl` it is 17.5%. Regarding `COC(=O)c1ccc(COC(=O)CNC(=O)c2ccco2)cc1`, the “hERG current change (%, negative = inhibition) at 1uM” value turned out to be 12.4%. Regarding `CCNc1nc(NCc2ccccc2)nc(SCC(N)=O)n1`, the “hERG current change (%, negative = inhibition) at 1uM” value stood at 8.2%.

As to `O=C(CSc1nnc(CNC(=O)C23CC4CC(CC(C4)C2)C3)n1-c1ccc(F)cc1)Nc1ccccc1`, the “hERG current change (%, negative = inhibition) at 1uM” value came out at 15.5%. In the case of `CC1CCCN(C(=O)c2nn(C)c3c2CS(=O)(=O)c2ccccc2-3)C1` (stereo not shown) it was 8.88%.

For the compound `O=C(CC1C(=O)N(c2ccccc2)C(=S)N1c1ccccc1)c1ccccc1` (stereo not shown), the “hERG current change (%, negative = inhibition) at 1uM” value was determined as 8.53%. As to `COc1ccc(CCNc2nncc(=O)[nH]2)cc1OC`, the “hERG current change (%, negative = inhibition) at 1uM” value is 7.14%. The figure for `Cc1ccc(S(=O)(=O)NC(=NCC(=O)O)c2ccc(F)cc2)cc1` is 11.2%; for `CN(C)C(=O)c1cc(C(=O)c2ccccc2F)c[nH]1` it is 9.33%. The figure for `CCN1C(=O)[C@@H]2[C@H](C1=O)[C@@H]1C(=O)Nc3ccccc3C(=O)N1[C@@H]2c1cccc(OC)c1` is -2.68%. The figure for `CC(=O)Nc1ccc(N(C(=O)CNC(=O)c2ccco2)C(C(=O)NCC2CCCO2)c2ccccc2)cc1` (stereo not shown) is 10.9%; for `O=C(NCCCN1CCOCC1)C(=O)NCC1OCCN1S(=O)(=O)c1ccc(F)cc1` (stereo not shown) it is 7.92%; for `COC(=O)c1ccc(CSc2nc(N3CCOCC3)c3c(c2C#N)CC(C)(C)OC3)o1` it is 3.72%. Take `CCCC(O)(CCC)C(=O)NN(C(=O)CCl)c1cccc(C)c1`: the “hERG current change (%, negative = inhibition) at 1uM” value is listed as 3.61%.

As for `COc1cc2nc(SCc3ccc(Cl)cc3Cl)n(Cc3cccs3)c(=N)c2cc1OC`, the “hERG current change (%, negative = inhibition) at 1uM” value was 9.95%. As for `CCC1(C)Cc2ccccc2-c2nc(SC)[nH]c(=O)c21` (stereo not shown), the “hERG current change (%, negative = inhibition) at 1uM” value is 10.9%.

Consider `Oc1cccc2ccc(/C=C/c3ccc(Br)s3)nc12`, for which the “hERG current change (%, negative = inhibition) at 1uM” value came out at 4.97%. As for `CCOC(=O)/C=C/C(=O)OCC(=O)Nc1ccc(Cl)cn1`, the “hERG current change (%, negative = inhibition) at 1uM” value is recorded as 15.2%. In the case of `CN(CCOc1ccc(Cl)cc1)c1ccc(S(=O)(=O)N2CCCCC2)cn1` it was -10.5%. In the case of `CSC1=N/C(=C\c2c(F)cccc2Cl)C(=O)S1` it was -10.3%; in that of `CCOC(=O)NC(Nc1ncccn1)(C(F)(F)F)C(F)(F)F`, 9.03%.

Take `C=CCN1C(=O)c2ccc(C(=O)N(CC(C)C)c3c(N)n(CCCC)c(=O)[nH]c3=O)cc2C1=O`: the “hERG current change (%, negative = inhibition) at 1uM” value turned out to be 21%. In the case of `COc1cccc(CNC(=O)Cn2c(=O)oc3cc(S(=O)(=O)N4CCCCC4)ccc32)c1` it was 11.4%.

As for `COc1ccc(/C(C)=N/NS(=O)(=O)c2ccccc2)c(OC)c1`, the “hERG current change (%, negative = inhibition) at 1uM” value is 10.9%.

With `CCc1ccc(CN2C(=O)CCC2(C)C(=O)NC2CCCC2)cc1` (stereo not shown), the “hERG current change (%, negative = inhibition) at 1uM” value is -1.47%. The figure for `COc1ccc(Br)cc1CN1C(=O)NC2(CCCCCC2)C1=O` is 6.05%; for `COc1ccccc1C(=O)Nc1cccc(NC(=O)c2ccccc2C)c1` it is 16.2%; for `CC1CCC(NCC(=O)Nc2cccc(S(N)(=O)=O)c2)CC1.O=C(O)C(=O)O` (stereo not shown) it is 13.8%. The figure for `COc1ccc(CN2CCN(Cc3c[nH]c4ccccc34)CC2)cc1.O=C(O)C(=O)O` is -27.2%; for `Cc1cccc(-c2noc(CNC(=O)c3ccco3)n2)c1` it is 15.4%. As to `Cc1nnc(Nc2ccc(C(=O)O)cc2)[nH]c1=O`, the “hERG current change (%, negative = inhibition) at 1uM” value was 10%. The figure for `Cc1cc(/C=C2\SC(=S)NC2=O)c(C)n1C` is 9.47%; for `Cc1ccc(-c2c(C(=O)N/N=C/c3c[nH]c4ccccc34)nnn2-c2nonc2N)cc1` it is 16.1%. With `Cc1nnc(NC(=O)c2c(F)cccc2F)s1`, the “hERG current change (%, negative = inhibition) at 1uM” value came out at 18.5%. In the case of `CSc1ncc2c(n1)-c1cc(C)ccc1SC2` it was 17.4%; in that of `Cc1cccc(NC(=S)NNC(=O)c2nn(C)cc2Cl)c1`, 6.26%; in that of `O=C(CN(Cc1cccs1)C(=O)CCC(=O)Nc1nccs1)NCc1ccccc1`, -0.952%. In the case of `Cc1ccc(NC(=O)c2sc(C)nc2C)c(C)c1` it was 2.9%.

Values taken from PMC4336329 (PLoS ONE, 2015).
